According to paper PMC10163088:
No constants are given. Whether binding was seen depends on the method and setting. Binding seen in cells or lysates may run through a third protein. Some entries that bind do so weakly or less than the wild type. Tags and fused reporters may be left off the sequences shown.

Sequences of proteins named here, by UniProt entry; tags and fusion partners are left off.
UniProt P16649: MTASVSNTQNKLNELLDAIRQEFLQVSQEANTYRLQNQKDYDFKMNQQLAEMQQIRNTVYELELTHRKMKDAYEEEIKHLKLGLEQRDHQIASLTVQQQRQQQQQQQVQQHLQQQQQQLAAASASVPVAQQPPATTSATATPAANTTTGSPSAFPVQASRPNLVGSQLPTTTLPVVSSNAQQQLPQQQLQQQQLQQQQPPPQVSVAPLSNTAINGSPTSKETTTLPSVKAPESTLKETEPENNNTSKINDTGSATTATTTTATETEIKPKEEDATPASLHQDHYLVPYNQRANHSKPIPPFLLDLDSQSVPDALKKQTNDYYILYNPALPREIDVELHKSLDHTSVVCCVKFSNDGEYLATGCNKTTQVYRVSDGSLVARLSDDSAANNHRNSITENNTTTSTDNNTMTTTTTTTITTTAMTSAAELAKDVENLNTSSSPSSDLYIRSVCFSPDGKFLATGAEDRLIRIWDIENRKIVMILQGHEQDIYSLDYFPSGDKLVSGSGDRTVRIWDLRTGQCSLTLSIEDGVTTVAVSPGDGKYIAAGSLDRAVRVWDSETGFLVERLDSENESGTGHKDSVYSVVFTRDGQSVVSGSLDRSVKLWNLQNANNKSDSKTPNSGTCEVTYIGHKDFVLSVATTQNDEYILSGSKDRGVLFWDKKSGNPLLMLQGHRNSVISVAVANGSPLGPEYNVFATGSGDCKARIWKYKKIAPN

T1: GST-Ure2 length variant aa 106-228 (S. cerevisiae) (UniProt P23202)
T1 sequence: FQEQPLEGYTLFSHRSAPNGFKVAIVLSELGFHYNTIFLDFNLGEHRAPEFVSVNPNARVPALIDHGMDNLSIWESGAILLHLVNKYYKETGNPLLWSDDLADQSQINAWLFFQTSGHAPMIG

T2: GST-Yox1 (full-length) (S. cerevisiae) (UniProt P34161)
T2 sequence: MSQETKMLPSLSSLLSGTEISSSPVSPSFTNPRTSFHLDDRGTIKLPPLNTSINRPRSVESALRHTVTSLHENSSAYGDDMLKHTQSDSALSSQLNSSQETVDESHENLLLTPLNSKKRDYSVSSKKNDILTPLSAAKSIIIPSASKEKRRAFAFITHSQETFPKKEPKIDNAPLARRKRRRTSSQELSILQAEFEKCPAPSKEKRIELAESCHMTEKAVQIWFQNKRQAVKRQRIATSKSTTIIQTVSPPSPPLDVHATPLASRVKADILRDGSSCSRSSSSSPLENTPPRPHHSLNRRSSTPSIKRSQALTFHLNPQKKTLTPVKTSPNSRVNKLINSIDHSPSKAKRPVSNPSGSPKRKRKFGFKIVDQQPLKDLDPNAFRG

T3: GST-Rox1 (full-length) (S. cerevisiae) (UniProt P25042)
T3 sequence: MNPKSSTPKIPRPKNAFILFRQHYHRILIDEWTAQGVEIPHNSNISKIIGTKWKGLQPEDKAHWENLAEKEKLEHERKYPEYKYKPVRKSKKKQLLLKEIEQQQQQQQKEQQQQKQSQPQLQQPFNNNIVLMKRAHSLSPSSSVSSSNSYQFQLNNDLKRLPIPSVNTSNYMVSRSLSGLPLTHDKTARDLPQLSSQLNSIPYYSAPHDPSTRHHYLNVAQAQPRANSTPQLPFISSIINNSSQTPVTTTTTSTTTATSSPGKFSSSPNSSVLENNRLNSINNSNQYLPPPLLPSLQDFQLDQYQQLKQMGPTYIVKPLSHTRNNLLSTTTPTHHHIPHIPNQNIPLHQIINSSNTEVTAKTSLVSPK

T4: GST-Rdr1 (full-length) (S. cerevisiae) (UniProt Q08904)
T4 sequence: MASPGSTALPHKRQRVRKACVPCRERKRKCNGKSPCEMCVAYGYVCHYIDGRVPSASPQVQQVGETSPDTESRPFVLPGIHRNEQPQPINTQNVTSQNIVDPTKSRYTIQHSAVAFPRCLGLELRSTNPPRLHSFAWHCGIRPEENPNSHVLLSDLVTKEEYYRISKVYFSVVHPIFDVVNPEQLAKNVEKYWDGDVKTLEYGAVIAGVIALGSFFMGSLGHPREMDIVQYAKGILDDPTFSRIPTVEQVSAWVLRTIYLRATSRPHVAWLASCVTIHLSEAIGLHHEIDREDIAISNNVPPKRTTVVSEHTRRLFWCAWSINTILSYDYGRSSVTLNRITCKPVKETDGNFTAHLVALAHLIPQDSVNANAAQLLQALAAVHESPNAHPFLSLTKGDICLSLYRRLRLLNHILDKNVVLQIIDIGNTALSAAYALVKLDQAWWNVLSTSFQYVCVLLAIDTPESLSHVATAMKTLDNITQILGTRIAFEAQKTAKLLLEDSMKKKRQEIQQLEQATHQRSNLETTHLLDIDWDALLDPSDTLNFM

T5: GST-Opi1 (full-length) (S. cerevisiae) (UniProt P21957)
T5 sequence: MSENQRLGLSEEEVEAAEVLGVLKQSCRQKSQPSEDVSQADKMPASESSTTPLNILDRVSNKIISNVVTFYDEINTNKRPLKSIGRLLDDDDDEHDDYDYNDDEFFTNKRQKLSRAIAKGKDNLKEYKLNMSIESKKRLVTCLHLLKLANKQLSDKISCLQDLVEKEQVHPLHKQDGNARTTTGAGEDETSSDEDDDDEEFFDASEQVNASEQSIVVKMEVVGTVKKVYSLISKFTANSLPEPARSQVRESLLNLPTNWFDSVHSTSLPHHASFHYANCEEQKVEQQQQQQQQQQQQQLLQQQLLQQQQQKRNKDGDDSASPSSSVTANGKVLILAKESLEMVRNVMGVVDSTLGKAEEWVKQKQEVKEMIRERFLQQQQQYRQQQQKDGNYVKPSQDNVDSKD

T6: GST-Fkh1 (full-length) (S. cerevisiae) (UniProt P40466)
T6 sequence: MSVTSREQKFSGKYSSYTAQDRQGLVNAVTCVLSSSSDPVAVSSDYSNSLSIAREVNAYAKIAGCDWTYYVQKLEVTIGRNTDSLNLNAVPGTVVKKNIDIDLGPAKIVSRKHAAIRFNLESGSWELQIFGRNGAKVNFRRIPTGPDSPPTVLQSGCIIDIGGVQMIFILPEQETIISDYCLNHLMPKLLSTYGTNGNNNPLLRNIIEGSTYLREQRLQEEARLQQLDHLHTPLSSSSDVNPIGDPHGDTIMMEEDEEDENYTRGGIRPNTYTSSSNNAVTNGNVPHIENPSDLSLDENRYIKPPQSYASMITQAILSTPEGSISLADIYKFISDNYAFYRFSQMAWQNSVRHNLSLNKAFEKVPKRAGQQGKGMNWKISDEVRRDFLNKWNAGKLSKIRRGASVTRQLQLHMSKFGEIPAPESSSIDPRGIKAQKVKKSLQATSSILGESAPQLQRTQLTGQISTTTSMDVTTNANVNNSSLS


Assays:
[1] = target: T1, GST-Ure2 length variant aa 106-228 (S. cerevisiae); experiment: pull-down; GST fusions of repressors (full-length or length variants) immobilised on GSH sepharose, incubated with bacterial total protein extracts containing HA-tagged Sin3, Cyc8 or Tup1 (or Tup1 length variants); elution with free GSH, anti-HA blot (Figs. 1, 3, 4, 5); only the target purified
[2] = target: T2, GST-Yox1 (full-length) (S. cerevisiae); experiment: pull-down; GST fusions of full-length repressors immobilised on GSH sepharose, incubated with protein extracts from yeast transformants containing epitope-tagged Sin3 length variants; anti-HA blot (Fig. 2); only the target purified
[3] = target: T3, GST-Rox1 (full-length) (S. cerevisiae); experiment: as above
[4] = target: T4, GST-Rdr1 (full-length) (S. cerevisiae); experiment: as above
[5] = target: T5, GST-Opi1 (full-length) (S. cerevisiae); experiment: as above
[6] = target: T6, GST-Fkh1 (full-length) (S. cerevisiae); experiment: as above

binding [2]	binding [3]	binding [4]	binding [5]	binding [6]	Molecule	binding [1]
binds	binds	binds	binds	binds	epitope-tagged Sin3 length variant 301-600 (PAH2; pYJ91) (from UniProt P22579 301-600) (domain or fragment)	
binds	binds	binds	binds	binds	epitope-tagged Sin3 length variant 1-300 (PAH1; pCW83) (domain or fragment, UniProt P22579 1-300) MSQVWHNSNSQSNDVATSNDATGSNERNEKEPSLQGNKPGFVQQQQRITLPSLSALSTKEEDRRDSNGQQALTSHAAHILGYPPPHSNAMPSIATDSALKQPHEYHPRPKSSSSSPSINASLMNAGPAPLPTVGAASFSLSRFDNPLPIKAPVHTEEPKSYNGLQEEEKATQRPQDCKEVPAGVQPADAPDPSSNHADANDDNNNNENSHDEDADYRPLNVKDALSYLEQVKFQFSSRPDIYNLFLDIMKDFKSQAIDTPGVIERVSTLFRGYPILIQGFNTFLPQGYRIECSSNPDDPI	

The remaining lines, values behind:

Molecule	binding [2]	binding [3]	binding [4]	binding [5]	binding [6]	binding [1]
HA3-Tup1 (full-length; pFK76) (from UniProt P16649 1-713)						no binding
HA3-Cyc8 (aa 1-398 with 10 TPR motifs; pFK77) (domain or fragment, UniProt P14922 1-398) MNPGGEQTIMEQPAQQQQQQQQQQQQQQQQAAVPQQPLDPLTQSTAETWLSIASLAETLGDGDRAAMAYDATLQFNPSSAKALTSLAHLYRSRDMFQRAAELYERALLVNPELSDVWATLGHCYLMLDDLQRAYNAYQQALYHLSNPNVPKLWHGIGILYDRYGSLDYAEEAFAKVLELDPHFEKANEIYFRLGIIYKHQGKWSQALECFRYILPQPPAPLQEWDIWFQLGSVLESMGEWQGAKEAYEHVLAQNQHHAKVLQQLGCLYGMSNVQFYDPQKALDYLLKSLEADPSDATTWYHLGRVHMIRTDYTAAYDAFQQAVNRDSRNPIFWCSIGVLYYQISQYRDALDAYTRAIRLNPYISEVWYDLGTLYETCNNQLSDALDAYKQAARLDVNN						no binding
